From patent publication US20090324624A1, “Chitin micro-particles as an adjuvant” (priority 2006, published 2009) come the findings set out here.

For data set [1], the system named is RAW 264.7 cells. Nature of the data set: MØ viability after MBCD (trypan blue, LDH release). The following applies: MBCD at 5 mM or less. The procedure:
(§1) For all experiments testing MAPK activation, MØ were incubated in serum-free RPMI 1640 at 37° C. for 2 h to achieve serum starvation prior to MBCD treatment. To deplete cholesterol, MØ were incubated with 0 (saline), 1 or 5 mM MBCD at 37° C. for 1 h, prior to chitin particle stimulation. Cell viability was determined by trypan blue exclusion and lactate dehydrogenase (LDH) release according to the manufacturer's instructions (Cytotoxity Colorimetric Assay Kit, Oxford Biomedical Research, Oxford, Mich.).
For orientation: LDH in the medium is a marker of cell lysis.

Data set [2] concerns RAW 264.7 cells. The data set can be described thus: Cellular cholesterol level after MBCD. The note with it: 5 mM MBCD, with or without 5% heat-inactivated FBS. The procedure: as §1
Cholesterol was extracted from cell pellets (10^6 cells) with methanol/chloroform (2:1), followed by addition of an equal volume of chloroform/water (1:1). Cholesterol was recovered from the chloroform layer by lyophilization. Extracted lipids were dissolved in the buffer for Cholesterol E test (Wako Bioproducts, Richmond, Va.) and cholesterol in the extract was determined by enzymatic colorimetric assay, according to the manufacturer's instructions. Cellular protein was measured, as described previously and cholesterol levels were normalized to the protein levels. Normalized cholesterol levels of saline-treated MØ were considered as 100%.

Regarding methyl-β-cyclodextrin [MBCD], the “cell viability at 24 h” value in the data set with RAW 264.7 cells [1] is on record as “did not reduce cell viability”. For the same substance, in the data set on RAW 264.7 cells [2], the “cellular cholesterol levels, % of that present prior to treatment” value was 40-45%.
